According to publication PMC4336329 (PLoS ONE, 2015):
The campaign covered roughly 310,000 compounds. About 2,200 (0.71%) showed an effect of 50% or more. Effects have a minus sign here. The list shows a part of the results.

target: human ether-à-go-go-related gene (hERG) potassium channel (human, UniProt Q12809); experiment: primary screen, population patch clamp on CHO cells stably expressing hERG
Sequence (Q12809 whole entry, looked up): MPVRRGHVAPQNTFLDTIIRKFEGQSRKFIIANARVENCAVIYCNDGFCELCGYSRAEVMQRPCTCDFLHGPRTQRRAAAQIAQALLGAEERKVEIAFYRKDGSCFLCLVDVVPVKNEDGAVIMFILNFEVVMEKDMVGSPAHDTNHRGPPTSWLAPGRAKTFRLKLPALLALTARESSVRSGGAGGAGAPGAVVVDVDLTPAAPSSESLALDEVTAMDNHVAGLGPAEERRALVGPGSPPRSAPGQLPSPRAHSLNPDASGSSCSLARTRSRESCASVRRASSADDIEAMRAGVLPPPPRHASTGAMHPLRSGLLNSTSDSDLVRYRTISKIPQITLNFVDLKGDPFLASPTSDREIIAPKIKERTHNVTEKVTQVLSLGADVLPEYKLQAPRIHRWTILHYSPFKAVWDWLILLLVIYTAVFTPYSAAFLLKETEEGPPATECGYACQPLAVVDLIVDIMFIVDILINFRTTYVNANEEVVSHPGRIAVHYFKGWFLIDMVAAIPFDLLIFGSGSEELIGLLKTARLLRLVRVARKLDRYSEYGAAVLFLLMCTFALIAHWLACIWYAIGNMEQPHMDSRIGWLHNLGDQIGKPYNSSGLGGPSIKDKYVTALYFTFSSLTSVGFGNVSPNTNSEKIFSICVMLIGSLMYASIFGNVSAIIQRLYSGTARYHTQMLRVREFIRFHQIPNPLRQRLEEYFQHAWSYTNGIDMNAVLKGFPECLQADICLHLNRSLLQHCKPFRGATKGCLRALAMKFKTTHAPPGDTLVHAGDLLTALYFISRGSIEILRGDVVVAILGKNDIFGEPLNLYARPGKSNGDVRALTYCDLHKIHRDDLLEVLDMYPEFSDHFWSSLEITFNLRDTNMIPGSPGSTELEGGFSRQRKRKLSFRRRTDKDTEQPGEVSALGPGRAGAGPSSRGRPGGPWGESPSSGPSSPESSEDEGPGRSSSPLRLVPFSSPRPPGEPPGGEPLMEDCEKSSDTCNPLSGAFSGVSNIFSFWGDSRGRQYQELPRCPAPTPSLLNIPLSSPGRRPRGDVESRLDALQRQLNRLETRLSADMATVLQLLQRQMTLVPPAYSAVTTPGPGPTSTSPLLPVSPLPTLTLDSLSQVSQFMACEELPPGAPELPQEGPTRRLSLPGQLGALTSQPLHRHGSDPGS

Structure (SMILES) | hERG current change (%, negative = inhibition) at 1uM [%]
COc1ccccc1OCCNC(=O)c1cccc(S(=O)(=O)N2CC(C)OC(C)C2)c1 (centres unmarked) | 6.51
COc1ccc(C2C(C(=O)NCc3ccco3)c3ccccc3C(=O)N2C)cc1 (centres unmarked) | 7.97
CCn1c(C)cc2c(c1=O)C(c1ccncc1)C(C#N)=C(N)O2 (centres unmarked) | 11.5
COc1cc(NC(=S)NC(=O)CCc2ccccc2)cc(OC)c1 | 5.06
CCOC(=O)c1ccc(N2C(=O)C(O)=C(C(C)=O)C2c2ccc(O)c(OC)c2)cc1 (centres unmarked) | 5.35
Cc1cc(N2CCN(C)CC2)nc2ccc(NC(=S)NC3CC3)cc12 | 6.33
O=C(CN1CCCC1)NC(c1ccccc1)c1ccccc1.O=C(O)C(=O)O | 2.57
COc1ccc(Br)cc1/C=N/n1nnnc1N | 9
O=c1[nH]c(CN2CCCCC2)nc2c1C1(CCCCC1)Cc1ccccc1-2 | 5.97
C=CCn1c(SCc2nc(N)nc(N3CCCCC3)n2)nnc1-c1ccco1 | 0.431
OCC#CC[N+]1(CC#Cc2ccccc2)CCCC1.[Br-] | 12.2
CC(C)CCNC(=O)c1onc(CSc2ccncc2)c1C(=O)NCCC(C)C | 2.53
Cc1ccc(SC(C)C(=O)Nc2cccnc2)cc1 (centres unmarked) | 8.26
O=[N+]([O-])c1ccc(CSc2nc3ccccc3o2)cc1 | 11.2
COC(=O)c1ccccc1NC(=O)c1ccco1 | 3.36
CC(C)NC(=O)NNC(=O)c1cc(COc2cc(Cl)cc(Cl)c2)on1 | 7.72
COc1ccc(-n2c(SCC(=O)Nc3nccs3)nc3c(c2=O)SCC3)cc1 | 9.88
COc1ccc(N(C(=O)COc2ccc(C)cc2)S(=O)(=O)c2ccc(C)cc2)cc1 | 1
OCC[C@@H]1C[C@H](O)[C@@H](O)[C@@]2(CCCc3ccccc3O2)O1 | 19.3
CC(C)N1CCC(=NNC(=O)c2cccs2)CC1 | 24.2
Cc1ccc(SCC(=O)N(C)C2CCS(=O)(=O)C2)cc1 (centres unmarked) | 8.94
CC1CC(C)CN(C(=O)CSc2nnc(-c3ccc(Cl)cc3)o2)C1 (centres unmarked) | 3.62

Structure (SMILES) | hERG current change (%, negative = inhibition) at 1uM [%]
O=S(=O)(Nc1ccc(S(=O)(=O)N2CCCC2)cc1)c1ccc(F)cc1 | 5.47
Cc1cccc(-n2c(=O)[nH]c3c(C(N)=O)nc(C(C)C)nc32)c1 | 4.1
Cc1cc(NS(=O)(=O)c2ccc(N)cc2)no1 | 13.5
CCC(=O)NC(Cc1ccccc1)c1ccc2c(c1)OCCCO2 (centres unmarked) | 10.7
O=C(O)c1ccc(NC(=S)NC(=O)c2cccc(COc3ccccc3)c2)cc1 | 19.7
Cl.OC(CNC1CCCC1)COc1ccc(Cl)cc1 (centres unmarked) | 2.27
CCOC(=O)c1cn(CC(=O)Nc2cccc(Cl)c2)nn1 | 1.17
O=C(Nc1cnc2ccccc2c1)c1cccc(-n2cnnn2)c1 | 11.7
O=C(NC(=S)Nc1ccc(CN2CCOCC2)cc1)c1ccc([N+](=O)[O-])cc1 | 13
Oc1ccc2ccccc2c1/C=N/c1nccs1 | 15.2
CC(Sc1nnc(CNc2cccc3ccccc23)n1-c1ccccc1)C(=O)N/N=C/c1ccco1 (centres unmarked) | 2.27
Cc1ccc(C)c(N2CCN(S(=O)(=O)c3c(C)noc3/C=C/N(C)C)CC2)c1 | 0.956
COc1ccc(C2C3C=CCC(c4cccc(-c5ccc(C)cc5)c4)C3C(=O)N2Cc2ccccc2)cc1Cl (centres unmarked) | 8.74
Cc1ccc(S(=O)(=O)NCCS(=O)(=O)N2CCN(c3ccc(F)cc3)CC2)cc1 | -3.7
Cn1nccc1C(=O)Nc1ccc2c(c1)OCO2 | 6.11
CCCCSc1nnc(-c2ccc(NC(=O)CC)cc2)n1C | 14
CC1=C(C(=O)Nc2ccccc2C)C(c2cccnc2)n2nc(CCCO)nc2N1 (centres unmarked) | 1.7
Cc1cc(C=O)c(C)n1CC1CCCO1 (centres unmarked) | 14.1
COc1ccc(NC(=O)c2oc3ccccc3c2NC(=O)C(C)(C)C)cc1 | 10
O=C(O)c1oc2ccccc2c1CSc1ccc(Cl)cc1 | 15.6
O=C(CSc1nc2ccccc2[nH]1)c1ccccc1F | 15.2
O=C(NCCO)/C(=C\c1ccc2c(c1)OCO2)NC(=O)c1ccc(Br)cc1 | -26.9
